The list shows a part of the results. Cut-off read from the data, not from the text of the source: active = 3.2 or more and inactive = the rest. Most of these values are background signal.
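Note: displayed peptides selected on beads carrying the immobilized SH2 domain, with library peptides lacking any tyrosine serving as negative controls.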

The target in the first assay is SHP2 C-SH2 domain E139D. The experiment in a line: enrichment score (SH2-bound / input frequency) (ratio); bacterial display of known human phosphotyrosine sites (pTyr-Var adds point mutants) read by sequencing; higher = stronger binding; tyrosines were phosphorylated by kinases first. The conditions noted are these: peptide library: pTyr-Var.
In the case of VYYDLYGGEKF [PTPN11_Y66_D61V], the enrichment score was inactive: 1.72.

With NTGFFYDLFGG [PTPN11_Y63_D61Y_YF], the enrichment score is inactive: 2.08.

For the molecule PYRFIYMAVQH [PTPN11_Y515_Q510P], the enrichment score is inactive: 2.69.

Take NTADYYDLYGG [PTPN11_Y63_G60A]: the enrichment score was inactive: 1.07.

Consider PFRFIYMAVQH [PTPN11_Y515_Q510P_YF], for which the enrichment score is active: 3.56.

As for QYRFIYMAVQH [PTPN11_Y515], the enrichment score is inactive: 1.06.

For YYYDLYGGEKF [PTPN11_Y66_D61Y], the enrichment score is inactive: 1.89.

Turning to PTEAQYRFIFM [PTPN11_Y511_Q506P_YF], the enrichment score was inactive: 0.458.

QNTGFYFDLFG [PTPN11_Y62_D61Y_YF]: the enrichment score is inactive: 1.03.

As to QNTGNYFDLFG [PTPN11_Y62_D61N_YF], the enrichment score is inactive: 0.877.

As to QKTGDYYDLYG [PTPN11_Y62_N58K], the enrichment score is inactive: 0.918.

For the molecule DFFDLYGGQKF [PTPN11_Y66_E69Q_YF], the enrichment score was inactive: 1.18.

In the case of QNTGNYYDLYG [PTPN11_Y62_D61N], the enrichment score is inactive: 1.1.

For NTGNFYDLFGG [PTPN11_Y63_D61N_YF], the enrichment score was inactive: 1.

As for EYRFIYMAVQH [PTPN11_Y515_Q510E], the enrichment score is inactive: 1.86.

Turning to EPVSDYINADI [PTPN11_Y304_N308D], the enrichment score is inactive: 0.826.

Turning to RTEAQYRFIFM [PTPN11_Y511_Q506R_YF], the enrichment score was inactive: 0.611.

As for DYYDLYGGEKK [PTPN11_Y66_F71K], the enrichment score is inactive: 1.3.

QTEAEYRFIYM [PTPN11_Y511_Q510E]: the enrichment score was inactive: 0.421.

A further assay has as its target SHP2 C-SH2 domain wild-type. The assay is described as above. The conditions noted are these: peptide library: pTyr-Var.
On to VYYDLYGGEKF [PTPN11_Y66_D61V], for which the enrichment score was inactive: 1.64.

Regarding NTGFFYDLFGG [PTPN11_Y63_D61Y_YF], the enrichment score was inactive: 1.87.

Consider PYRFIYMAVQH [PTPN11_Y515_Q510P], for which the enrichment score is inactive: 3.06.

In the case of NTADYYDLYGG [PTPN11_Y63_G60A], the enrichment score is inactive: 1.

In the case of PFRFIYMAVQH [PTPN11_Y515_Q510P_YF], the enrichment score was inactive: 2.57.

Consider QYRFIYMAVQH [PTPN11_Y515], for which the enrichment score is inactive: 1.41.

YYYDLYGGEKF [PTPN11_Y66_D61Y]: the enrichment score was inactive: 1.83.

For the molecule PTEAQYRFIFM [PTPN11_Y511_Q506P_YF], the enrichment score was inactive: 0.58.

For QNTGFYFDLFG [PTPN11_Y62_D61Y_YF], the enrichment score was inactive: 1.28.

Turning to QNTGNYFDLFG [PTPN11_Y62_D61N_YF], the enrichment score is inactive: 0.799.

As for QKTGDYYDLYG [PTPN11_Y62_N58K], the enrichment score was inactive: 0.692.

On to DFFDLYGGQKF [PTPN11_Y66_E69Q_YF], for which the enrichment score is inactive: 0.85.

As for QNTGNYYDLYG [PTPN11_Y62_D61N], the enrichment score is inactive: 0.741.

As to NTGNFYDLFGG [PTPN11_Y63_D61N_YF], the enrichment score is inactive: 1.04.

In the case of EYRFIYMAVQH [PTPN11_Y515_Q510E], the enrichment score is inactive: 1.47.

For EPVSDYINADI [PTPN11_Y304_N308D], the enrichment score was inactive: 0.787.

In the case of RTEAQYRFIFM [PTPN11_Y511_Q506R_YF], the enrichment score was inactive: 0.842.

On to DYYDLYGGEKK [PTPN11_Y66_F71K], for which the enrichment score is inactive: 0.907.

Regarding QTEAEYRFIYM [PTPN11_Y511_Q510E], the enrichment score is inactive: 0.768.

The target in a further assay is SHP2 N-SH2 domain L43F. Described as above. The conditions noted are these: peptide library: pTyr-Var.
As for VYYDLYGGEKF [PTPN11_Y66_D61V], the enrichment score is inactive: 1.84.

NTGFFYDLFGG [PTPN11_Y63_D61Y_YF]: the enrichment score is inactive: 2.26.

PYRFIYMAVQH [PTPN11_Y515_Q510P]: the enrichment score was inactive: 2.87.

Consider NTADYYDLYGG [PTPN11_Y63_G60A], for which the enrichment score is inactive: 1.04.

As to PFRFIYMAVQH [PTPN11_Y515_Q510P_YF], the enrichment score was active: 3.75.

With QYRFIYMAVQH [PTPN11_Y515], the enrichment score is inactive: 1.01.

Turning to YYYDLYGGEKF [PTPN11_Y66_D61Y], the enrichment score is inactive: 1.63.

On to PTEAQYRFIFM [PTPN11_Y511_Q506P_YF], for which the enrichment score was inactive: 0.404.

Turning to QNTGFYFDLFG [PTPN11_Y62_D61Y_YF], the enrichment score was inactive: 1.13.

As for QNTGNYFDLFG [PTPN11_Y62_D61N_YF], the enrichment score is inactive: 0.698.

QKTGDYYDLYG [PTPN11_Y62_N58K]: the enrichment score is inactive: 0.669.

Regarding DFFDLYGGQKF [PTPN11_Y66_E69Q_YF], the enrichment score is inactive: 0.901.

With QNTGNYYDLYG [PTPN11_Y62_D61N], the enrichment score was inactive: 0.845.

For NTGNFYDLFGG [PTPN11_Y63_D61N_YF], the enrichment score was inactive: 0.97.

Regarding EYRFIYMAVQH [PTPN11_Y515_Q510E], the enrichment score is inactive: 1.51.

Consider EPVSDYINADI [PTPN11_Y304_N308D], for which the enrichment score was inactive: 0.842.

As to RTEAQYRFIFM [PTPN11_Y511_Q506R_YF], the enrichment score was inactive: 0.72.

For DYYDLYGGEKK [PTPN11_Y66_F71K], the enrichment score is inactive: 0.797.

Regarding QTEAEYRFIYM [PTPN11_Y511_Q510E], the enrichment score is inactive: 0.547.

A further assay deals with SHP2 N-SH2 domain T42A. Described as above. The conditions noted are these: peptide library: pTyr-Var.
In the case of VYYDLYGGEKF [PTPN11_Y66_D61V], the enrichment score was inactive: 1.65.

Turning to NTGFFYDLFGG [PTPN11_Y63_D61Y_YF], the enrichment score is inactive: 2.26.

With PYRFIYMAVQH [PTPN11_Y515_Q510P], the enrichment score is inactive: 2.29.

As to NTADYYDLYGG [PTPN11_Y63_G60A], the enrichment score is inactive: 0.71.

Take PFRFIYMAVQH [PTPN11_Y515_Q510P_YF]: the enrichment score was inactive: 2.69.

QYRFIYMAVQH [PTPN11_Y515]: the enrichment score was inactive: 1.38.

With YYYDLYGGEKF [PTPN11_Y66_D61Y], the enrichment score is inactive: 1.36.

With PTEAQYRFIFM [PTPN11_Y511_Q506P_YF], the enrichment score is inactive: 0.478.

Consider QNTGFYFDLFG [PTPN11_Y62_D61Y_YF], for which the enrichment score was inactive: 1.18.

As to QNTGNYFDLFG [PTPN11_Y62_D61N_YF], the enrichment score is inactive: 0.936.

Regarding QKTGDYYDLYG [PTPN11_Y62_N58K], the enrichment score was inactive: 0.579.

As to DFFDLYGGQKF [PTPN11_Y66_E69Q_YF], the enrichment score was inactive: 0.857.

On to QNTGNYYDLYG [PTPN11_Y62_D61N], for which the enrichment score is inactive: 0.47.

Turning to NTGNFYDLFGG [PTPN11_Y63_D61N_YF], the enrichment score was inactive: 1.08.

As to EYRFIYMAVQH [PTPN11_Y515_Q510E], the enrichment score was inactive: 1.46.

EPVSDYINADI [PTPN11_Y304_N308D]: the enrichment score was inactive: 0.61.

For the molecule RTEAQYRFIFM [PTPN11_Y511_Q506R_YF], the enrichment score is inactive: 0.659.

DYYDLYGGEKK [PTPN11_Y66_F71K]: the enrichment score was inactive: 0.483.

For QTEAEYRFIYM [PTPN11_Y511_Q510E], the enrichment score is inactive: 0.417.

The target of the next assay is SHP2 N-SH2 domain T52S. The description is as above. The settings on record: peptide library: pTyr-Var.
Consider VYYDLYGGEKF [PTPN11_Y66_D61V], for which the enrichment score is inactive: 1.62.

With NTGFFYDLFGG [PTPN11_Y63_D61Y_YF], the enrichment score was inactive: 2.45.

As for PYRFIYMAVQH [PTPN11_Y515_Q510P], the enrichment score is inactive: 2.79.

Regarding NTADYYDLYGG [PTPN11_Y63_G60A], the enrichment score is inactive: 1.77.

Turning to PFRFIYMAVQH [PTPN11_Y515_Q510P_YF], the enrichment score was active: 3.22.

Consider QYRFIYMAVQH [PTPN11_Y515], for which the enrichment score is inactive: 1.07.

Consider YYYDLYGGEKF [PTPN11_Y66_D61Y], for which the enrichment score was inactive: 1.57.

Regarding PTEAQYRFIFM [PTPN11_Y511_Q506P_YF], the enrichment score is inactive: 0.565.

On to QNTGFYFDLFG [PTPN11_Y62_D61Y_YF], for which the enrichment score is inactive: 1.14.

In the case of QNTGNYFDLFG [PTPN11_Y62_D61N_YF], the enrichment score is inactive: 0.805.

Regarding QKTGDYYDLYG [PTPN11_Y62_N58K], the enrichment score is inactive: 0.582.

With DFFDLYGGQKF [PTPN11_Y66_E69Q_YF], the enrichment score was inactive: 0.958.

As for QNTGNYYDLYG [PTPN11_Y62_D61N], the enrichment score was inactive: 0.669.

For NTGNFYDLFGG [PTPN11_Y63_D61N_YF], the enrichment score was inactive: 1.06.

On to EYRFIYMAVQH [PTPN11_Y515_Q510E], for which the enrichment score is inactive: 1.33.

As to EPVSDYINADI [PTPN11_Y304_N308D], the enrichment score was inactive: 0.701.

Regarding RTEAQYRFIFM [PTPN11_Y511_Q506R_YF], the enrichment score is inactive: 0.327.

In the case of DYYDLYGGEKK [PTPN11_Y66_F71K], the enrichment score is inactive: 0.716.

QTEAEYRFIYM [PTPN11_Y511_Q510E]: the enrichment score was inactive: 0.43.

In a further assay the target is SHP2 N-SH2 domain wild-type. The description is as above. The conditions noted are these: peptide library: pTyr-Var.
In the case of VYYDLYGGEKF [PTPN11_Y66_D61V], the enrichment score was inactive: 1.73.

On to NTGFFYDLFGG [PTPN11_Y63_D61Y_YF], for which the enrichment score is inactive: 2.29.

Take PYRFIYMAVQH [PTPN11_Y515_Q510P]: the enrichment score was inactive: 2.55.

In the case of NTADYYDLYGG [PTPN11_Y63_G60A], the enrichment score was inactive: 1.13.

Regarding PFRFIYMAVQH [PTPN11_Y515_Q510P_YF], the enrichment score is active: 3.43.

For the molecule QYRFIYMAVQH [PTPN11_Y515], the enrichment score is inactive: 1.66.

Turning to YYYDLYGGEKF [PTPN11_Y66_D61Y], the enrichment score is inactive: 1.65.

With PTEAQYRFIFM [PTPN11_Y511_Q506P_YF], the enrichment score was inactive: 0.494.

With QNTGFYFDLFG [PTPN11_Y62_D61Y_YF], the enrichment score is inactive: 0.994.

Regarding QNTGNYFDLFG [PTPN11_Y62_D61N_YF], the enrichment score was inactive: 0.918.

As to QKTGDYYDLYG [PTPN11_Y62_N58K], the enrichment score is inactive: 0.718.

With DFFDLYGGQKF [PTPN11_Y66_E69Q_YF], the enrichment score was inactive: 0.837.

As for QNTGNYYDLYG [PTPN11_Y62_D61N], the enrichment score is inactive: 0.545.

On to NTGNFYDLFGG [PTPN11_Y63_D61N_YF], for which the enrichment score was inactive: 1.33.

For the molecule EYRFIYMAVQH [PTPN11_Y515_Q510E], the enrichment score was inactive: 1.71.

Consider EPVSDYINADI [PTPN11_Y304_N308D], for which the enrichment score was inactive: 0.945.

As for RTEAQYRFIFM [PTPN11_Y511_Q506R_YF], the enrichment score is inactive: 1.04.

Consider DYYDLYGGEKK [PTPN11_Y66_F71K], for which the enrichment score was inactive: 0.926.

As to QTEAEYRFIYM [PTPN11_Y511_Q510E], the enrichment score was inactive: 0.52.

Source of the values: the supplement of paper PMC10369915.
